Some of the results follow. Many values rest on one well or one pass, so single values are uncertain.
Assays:
Test in all cases: cell count relative to DMSO control; melanoma cells; higher = more viable cells
Conditions in all cases: library dose: standard library concentration; 72 h
G361 = tested on: G361
IPC-298 = tested on: IPC-298
IST-MEL1 = tested on: IST-MEL1
LOXIMVI = tested on: LOXIMVI
MEL-HO = tested on: MEL-HO
MeWo = tested on: MeWo
RPMI7951 = tested on: RPMI7951
RVH-421 = tested on: RVH-421
SkMel28 = tested on: SkMel28
SkMel2 = tested on: SkMel2
SkMel30 = tested on: SkMel30
SkMel5 = tested on: SkMel5
UACC257 = tested on: UACC257
UACC62 = tested on: UACC62
WM115 = tested on: WM115
WM1716 = tested on: WM1716
WM1745 = tested on: WM1745
WM3526 = tested on: WM3526
LB2518-MEL = tested on: LB2518-MEL
MZ2-MEL = tested on: MZ2-MEL
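Further: cells treated in 1,536-well plates, then fixed and DAPI-stained, with nuclei counted from automated high-throughput microscope images.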

SMILES	cell count (G361) [%]	cell count (IPC-298) [%]	cell count (IST-MEL1) [%]	cell count (LOXIMVI) [%]	cell count (MEL-HO) [%]	cell count (MeWo) [%]	cell count (RPMI7951) [%]	cell count (RVH-421) [%]	cell count (SkMel28) [%]	cell count (SkMel2) [%]	cell count (SkMel30) [%]	cell count (SkMel5) [%]	cell count (UACC257) [%]	cell count (UACC62) [%]	cell count (WM115) [%]	cell count (WM1716) [%]	cell count (WM1745) [%]	cell count (WM3526) [%]	cell count (LB2518-MEL) [%]	cell count (MZ2-MEL) [%]
NC(=O)c1ccc(N(C(N)=O)c2c(F)cccc2F)nc1-c1ccc(F)cc1F + CS(=O)(=O)c1ccc(C(=O)Nc2ccc(Cl)c(-c3ccccn3)c2)c(Cl)c1 [vismodegib] (first compound 2 µM, partner dose 5 µM)	102	98.3	108	113	116	121	127	78.7	164	107	130	111	104	68.8	133	133	87.4	123	–	–
CN(NC(=O)CC(=O)NN(C)C(=S)c1ccccc1)C(=S)c1ccccc1 + CC(C)CCN1c2nc(Nc3cc(F)c(O)c(F)c3)ncc2N(C)C(=O)C1C [BID1870] (first compound 0.03 µM, partner dose 1 µM)	36	61.4	47	81.3	72.1	14.4	66.3	47.9	–	52.8	75.7	52.4	82.3	77.9	15.7	81.8	42.9	75.4	14.2	97.5
CCCCCCCCc1ccc(CCC(N)(CO)CO)cc1 [fingolimod] + O=C(CCCCCCC(=O)Nc1ccccc1)NO [vorinostat] (first compound 10 µM, partner dose 0.4 µM)	0.12	42.7	5.03	4.03	1.85	15.5	1.21	6.04	0.268	0.397	16.6	50.5	56.2	16.3	20.2	37.2	2.61	19	–	–
NC(=O)c1ccc(N(C(N)=O)c2c(F)cccc2F)nc1-c1ccc(F)cc1F + COCC[n+]1c2c(n(Cc3cnccn3)c1C)C(=O)c1ccccc1C2=O [YM155] (first compound 2 µM, partner dose 0.002 µM)	106	47.9	54.5	46.5	84.5	61.6	43.6	121	47	32.7	89.3	41.5	29	59.3	74.9	72.3	87.8	53	–	–
Cc1ccc(NC(=O)c2cccc(N(C)C)c2)cc1NC(=O)c1ccc(O)cc1 + CC(C)(C)c1cnc(CSc2cnc(NC(=O)C3CCNCC3)s2)o1 [SNS-032] (first compound 10 µM, partner dose 0.05 µM)	76.7	109	90.3	94	79.7	76.7	30.9	88.4	83.6	–	97.4	64.8	90.3	73	73.1	82.2	69.3	81	–	–
CN(NC(=O)CC(=O)NN(C)C(=S)c1ccccc1)C(=S)c1ccccc1 + c1cc(-c2cnn3cc(-c4ccc(OCCN5CCCCC5)cc4)cnc23)ccn1 [Dorsomorphin] (first compound 0.03 µM, partner dose 2 µM)	25.5	68.5	36.1	80.7	77.5	22.5	57.5	86.5	12.6	–	99.2	55.3	86.6	48.9	21.5	71	29.3	78.1	–	–
CCCCCCCCc1ccc(CCC(N)(CO)CO)cc1 [fingolimod] + Cn1c(=O)n(-c2ccc(C(C)(C)C#N)cc2)c2c3cc(-c4cnc5ccccc5c4)ccc3ncc21 [NVP-BEZ235] (first compound 10 µM, partner dose 0.02 µM)	0.405	39.8	3.5	35.9	0.418	30.4	0.6	0.429	–	0.0826	12.9	60.1	69.6	11.6	11.5	37.4	4.33	26.2	0.177	0.534
Cc1ccc(NC(=O)c2cccc(N(C)C)c2)cc1NC(=O)c1ccc(O)cc1 + Oc1cc(-c2nc(-c3ccccc3)[nH]c2-c2ccncc2)ccc1Cl [L779450] (first compound 10 µM, partner dose 1 µM)	70.3	92.8	81.7	83	76	91.1	77.2	63.1	49.8	–	93.1	82.5	108	64.9	49.4	83.1	56.8	59.1	–	–
CCCCCCCCc1ccc(CCC(N)(CO)CO)cc1 [fingolimod] + COC(=O)c1sccc1S(=O)(=O)Nc1ccc(Nc2ccccc2)cc1OC [GSK0660] (first compound 10 µM, partner dose 5 µM)	0.822	45.6	8.8	61.8	4.7	42.8	5.83	11.1	–	0.216	6.21	79.8	55.4	22.4	11.5	46.7	–	11.4	0.597	1.6
CCCCCCCCc1ccc(CCC(N)(CO)CO)cc1 [fingolimod] + CN(c1ncccc1CNc1nc(Nc2ccc3c(c2)CC(=O)N3)ncc1C(F)(F)F)S(C)(=O)=O [PF562271] (first compound 10 µM, partner dose 0.4 µM)	1.76	70.6	18.5	15.8	22.1	41.2	4.37	22.9	1.82	31	11	42.6	78.8	24.2	8.76	50.7	5.46	44.4	–	–
COc1cc2c(Oc3ccc4[nH]c(C)cc4c3F)ncnc2cc1OCCCN1CCCC1 [cediranib] + O=c1cc(-c2cccc3c2Sc2ccccc2S3)oc(N2CCOCC2)c1 [KU55933] (first compound 2 µM, partner dose 5 µM)	74.2	89.6	97.1	96.6	88.6	81.1	62.4	75.5	73.8	98.9	107	83.6	107	76.1	97.5	89.7	85.2	72.6	–	–
CCCCCCCCc1ccc(CCC(N)(CO)CO)cc1 [fingolimod] + CN(NC(=O)CC(=O)NN(C)C(=S)c1ccccc1)C(=S)c1ccccc1 [STA4783] (first compound 10 µM, partner dose 0.03 µM)	1.87	17.5	18.8	11.8	11	7.72	3.54	8.84	–	0.105	5.23	27.5	39.2	16.3	14	25.1	14.4	11.7	0.998	3.15
CCCCCCCCc1ccc(CCC(N)(CO)CO)cc1 [fingolimod] + CC1(C)NC(=O)N(c2ccc([N+](=O)[O-])c(C(F)(F)F)c2)C1=O [nilutamide] (first compound 10 µM, partner dose 5 µM)	1.05	30.6	9.01	11.8	4.51	15.4	0.569	5.5	–	0.926	11.7	49.5	60.3	22.1	14.4	22.1	5.36	12.9	0.165	2.01
CC(C)(C)c1cnc(CSc2cnc(NC(=O)C3CCNCC3)s2)o1 + O=S(=O)(c1ccccc1)N(CC(F)(F)F)c1ccc(C(O)(C(F)(F)F)C(F)(F)F)cc1 [T0901317] (first compound 0.05 µM, partner dose 7 µM)	66.6	73	83.1	47.5	78.4	89	26.6	61	46.7	–	82.6	54	79.1	66.5	83.3	75.3	58.9	67.2	–	–
CCCCCCCCc1ccc(CCC(N)(CO)CO)cc1 [fingolimod] + COc1cc2ncnc(Nc3ccc(Oc4ccccc4)cc3)c2cc1OC [SrcI1] (first compound 10 µM, partner dose 10 µM)	0.625	6.36	3.7	23.6	12.2	9.76	2.35	7.85	–	0.567	9.62	47.3	75.9	13.5	6.29	50.8	–	21.1	0.219	2.04
CCCCCCCCc1ccc(CCC(N)(CO)CO)cc1 [fingolimod] + NCC(=O)Nc1ccc(-n2nc(C(F)(F)F)cc2-c2ccc3c(ccc4ccccc43)c2)cc1 [OSU03012] (first compound 10 µM, partner dose 5 µM)	–	17.8	4.6	2.66	2.09	6.38	0.642	7.33	–	0.18	9.31	16.6	25.5	23	14.6	10.6	1.83	5.24	0.174	1.88
